1 molecule from patent publication US20180346594A1 can be followed below.

Some entries of the source have several records that differ or are many. The other results are left out here. An entry can have further records. Results that share an entry appear to be repeats (runs, samples, wells or individuals); a mean can stand among them. Signs of the kind (2×) say how often a value occurs here.

For test [1], the target named is 16C3 antigen (human colorectal and pancreatic carcinoma-associated antigen, CPAA, recognized by the 16C3 antibody) (human). As to the kind of experiment: FACS, LS174T cells, CHO supernatant. For orientation: A flow cytometer gives signals particle by particle.
For test [2] the target is unchanged. As to the kind of experiment: FACS, CFPAC-1 cells, CHO supernatant.

B1: H16C3-Abb* (optimized humanized 16C3 antibody) (antibody, from a related filing, V domains shown, part only)
VH: QVQLVQSGAEVKKPGASVKVSCKASGYTFTDYAMHWVRQAPGQRLEWMGLISTYSGDTKYNQNFQGRVTMTVDKSASTAYMELSSLRSEDTAVYYCARGDYSGSRYWFAYWGQGTLVTVSS
VL: DIQMTQSPSSLSASVGDRVTITCQASENIYGALNWYQRKPGKSPKLLIYGASNLATGMPSRFSGSGSGTDYTFTISSLQPEDIATYYCQQVLSSPYTFGGGTKLEIKR
On to B1, for which, in test [1], the % binding to LS174T cells was 54.4, 51.1, 55.2, 53.8, 56.2% [lines of one column] and the mfi is 374, 299, 402, 333, 407 mfi [lines of one column]. For the same molecule, in test [2], the % binding to CFPAC-1 cells is 98.6 (2×), 97.7, 98.7, 99.1% [lines of one column] and the mfi was 411, 299, 486, 371, 447 mfi [lines of one column].
